Values marked as one replicate rest on one cluster of the flow cell; about a third of the high ones do not repeat.
Test system: ATP
Test: switch fluorescence ratio, 500 uM ATP over buffer (Cy3 cluster intensity, sum of 5 cycles each) (fold (ratio)); higher = stronger signal-on switching upon ATP binding; sequences stand for … in TCGTCGGCAGCGTCAGATGTGTATAAGAGACAGTTTTTTTTTTTTTTTTTTTTTTTTT…TC
Conditions: aptamer strand: ATP DNA aptamer (quencher-CACCTGGGGGAGTATTGCGGAGGAAGG + anchor), 100 nM annealed; ATP concentration: 500 uM; one replicate
In short: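 Clusters with intensities outside 100-1000 RFU were excluded. The remaining Cy3-labelled switching-strand clusters on a modified Illumina MiSeq flow-cell had been annealed to 100 nM quencher-labelled ATP aptamer and imaged in selection buffer, then after 15 min with 500 uM ATP at 22 °C, for five cycles separated by NaOH stripping and re-annealing. The fluorescence ratio, averaged per switch-domain sequence, is each cluster's summed target-cycle Cy3 intensity over its summed buffer-cycle Cy3 intensity.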
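Further: ATP exposure 15 min at 22 °C before imaging.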

| Sequence | switch fluorescence ratio |
| --- | --- |
| TAGATACAGC | 0.999 |
| AGAAAAGTCA | 1.01 |
| AAACGTTACC | 1.75 |
| GATGTAATAA | 1.11 |
| TTGCTTCAGA | 0.976 |
| CTGTTCACAC | 0.947 |
| AAGGTGAAGC | 1.04 |
| GACGTTGTCC | 1.03 |
| CAAGTGAAAC | 0.97 |
| CGGTACAACC | 0.949 |
| ACGGAGGTT | 1.04 |
| AGCATGGTT | 0.97 |
| CGGCTGGATA | 0.995 |
| ACAAAGCACG | 1.16 |
| CAAGGCGTTT | 1.02 |
| TGTGCGGACT | 1.04 |
| GTTGATGTTC | 0.993 |
| GCTTAGGCCT | 1.03 |
| GACCTAACGC | 1.41 |
| CGAAGTTCC | 1.05 |
| ATTATGGGG | 0.955 |
| GCCTGGCAAC | 0.969 |
| CTATATGGTC | 1.01 |
| AACATTGCAG | 1.04 |
| GTCAGAAACT | 0.976 |
| CGTTCCGATG | 1.43 |

| Sequence | switch fluorescence ratio |
| --- | --- |
| TTAGCACT | 1.09 |
| AGGAGGAA | 1.02 |
| GTTGAATGT | 0.988 |
| ACGTCCTGTA | 0.979 |
| TTAGTGTGTA | 1.02 |
| ACTGCGGCCC | 1.02 |
| GACTATCGCC | 1.17 |
| CGGTCCAGAA | 1.01 |
| TTTAGGATCG | 1.01 |
| TCGCCATTGA | 0.969 |
| TGCAAGCCAT | 0.997 |
| TTCTGATACT | 1.03 |
| CAAGGCTTT | 0.969 |
| CACATCTTGG | 0.996 |
| CTAAATGCAT | 0.999 |
| AAAAGCCAGC | 1.03 |
| TAAGGCCAAC | 1.04 |
| GGTCGCCCCA | 0.989 |
| CCGCTGTGGC | 2.19 |
| AAAAGGTGGG | 1.01 |
| TGCGGAATC | 1.63 |
| GATGGGTGAA | 0.973 |
| CGGGTTAA | 0.978 |
| CTCATGTTCT | 1.05 |
| TGGTCGGAGT | 1 |
| ATGTCGGGCG | 0.975 |

| Sequence | switch fluorescence ratio |
| --- | --- |
| GCTGTCAGAT | 1.02 |
| GCAGGATCGT | 0.998 |
| ATGAGATTGG | 0.988 |
| TGAGCTGTGG | 0.971 |
| CCCAGCCGCG | 1.18 |
| GTGCTGGTGT | 1.01 |
| ATCGCTATAT | 1.82 |
| TGGGGGGCCC | 1.06 |
| ATTTGGCCTC | 0.967 |
| TGAGCTCGGG | 1 |
| CTTTTACGAT | 1.03 |
| AAGGGGTCGA | 1.05 |
| ATAGTTTTGT | 1.04 |
| CTCAGGACGC | 0.985 |
| ATCCATTAAG | 1.04 |
| TAAACGGCAC | 1.96 |
| TTATGCGGGC | 1.01 |
| GGTTTTGTGA | 1.01 |
| GTTGGATAGC | 0.998 |
| GTCGTCGCGG | 1.03 |
| ATGTGCAATT | 1.07 |
| CTATTTAGTT | 1.01 |
| GTAGCGCTTT | 1.01 |
| AATCAACCGC | 1.14 |
| TACAGTATCG | 1.01 |
| CATTCAGTT | 1 |

| Sequence | switch fluorescence ratio |
| --- | --- |
| CATTTGTTC | 1.05 |
| TTAGTGGTAT | 0.979 |
| TAGGTGGATC | 1.02 |
| TAGAAGAAAT | 0.952 |
| ACTTGCACGC | 1.28 |
| GATGGACGCA | 1.1 |
| CTCTTCGACC | 1.06 |
| GAGAACCAGC | 1 |
| GGTCGTCCCA | 1.11 |
| ATGCGTCTGA | 1.1 |
| AACTGTGATC | 1 |
| TACGGCAGCA | 1.13 |
| GCTTAAATGC | 1.05 |
| CTCTTGCCCG | 1.12 |
| AGATAACACT | 1.05 |
| CATGTGGCAT | 1.02 |
| AGGGGGTGC | 1.05 |
| TATTACCCCT | 1.06 |
| GCTGTGGAGC | 1.01 |
| AGCCAACAT | 1.06 |
| TGGATAGTTT | 1.01 |
| TCGTGGACCA | 1.01 |
| ATAAACACTT | 1.4 |
| ACGTTAAACT | 1.14 |
| AAAAGTGTGG | 1.01 |
| AGAATGGTAC | 1.05 |

| Sequence | switch fluorescence ratio |
| --- | --- |
| ATCTATCTAT | 1.03 |
| TGAGGACACG | 1.06 |
| CTGGATAGAC | 1.08 |
| GCCTCACCTT | 1.08 |
| AGGAAGGGAT | 0.955 |
| CTTAGGGTCT | 0.979 |
| AGGGTATAAG | 0.966 |
| CACCGCACCG | 1.57 |
| AGCACATAGG | 1.09 |
| TCGGCAGTC | 1.07 |
| AACTGCACCG | 1.15 |
| TTCACAAGTT | 1 |
| CTTTGGGTGT | 1.3 |
| CCAGCGACGG | 1.05 |
| TTGTGGTAC | 1.38 |
| CATAGGCGCG | 0.934 |
| TTATCCCTT | 1.05 |
| CTAAGGAGTT | 1.03 |
| AAAAAGGCGT | 0.977 |
| ATAGTTCGCA | 1.01 |
| CCTTGGGGA | 1.19 |
| AATGGTACTT | 1.09 |
| ACTGGAAGTT | 0.925 |
| CCCTTGGATT | 1.04 |
| AGCGTTCGCG | 0.981 |
| GGCTTTGTCA | 0.989 |

| Sequence | switch fluorescence ratio |
| --- | --- |
| GTTGCATCTG | 0.967 |
| AACTTGGTGC | 1.03 |
| TACAGAGAG | 0.986 |
| AACGAGTTGC | 1.12 |
| TCCCTATAGT | 1.05 |
| ATGCGCTTCA | 0.999 |
| GGCTAGATGG | 0.949 |
| CCAAAAGTAA | 1.64 |
| GCATAAGTAG | 0.936 |
| CGTTGGAGAC | 1.02 |
| TGTAGACCGA | 0.987 |
| AGTGATGCCG | 1.06 |
| GCCTCGCCGG | 1 |
| TCCAAGGACG | 1.1 |
| CAATCGAGC | 1.02 |
| TCCGGACCGC | 1 |
| TGATTGGACG | 1.02 |
| AAGATGCACG | 0.951 |
| GAGTGGGGCT | 0.985 |
| AGCATTTTTA | 0.995 |
| GTAAAGAGAC | 0.973 |
| AGCTTGCTCT | 0.99 |
| CAGATGTGGT | 0.983 |
| TCTATAGTGG | 0.983 |

Reference: the supplement of paper PMC10126150
